Results published in the supplement of paper PMC9174493.
The list shows a part of the results. Single values of this set are uncertain. Values with irradiation are relative to irradiated vehicle.

Tests used:
A549-Dual [1] = test: NF-kB reporter (SEAP) activity, viability-corrected, relative to vehicle (fold change vs vehicle); higher = more activation of STING-IRF / NF-kB immune response reporter
A549-Dual [2] = test: ISRE reporter (Lucia luciferase) activity, viability-corrected, relative to vehicle (fold change vs vehicle); higher = more activation of STING-IRF / NF-kB immune response reporter
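For NF-kB reporter (SEAP) activity, viability-corrected, relative to vehicle in this document: viability correction based on the alamar blue assay, with concentrations leaving 10% survival or less dropped.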

Compound | NF-kB reporter (A549-Dual [1]; 0.1 µM, irradiation: 8 Gy/4 fr) | NF-kB reporter (A549-Dual [1]; 0.1 µM, irradiation: none) | NF-kB reporter (A549-Dual [1]; 0.3 µM, irradiation: 8 Gy/4 fr) | NF-kB reporter (A549-Dual [1]; 0.3 µM, irradiation: none) | NF-kB reporter (A549-Dual [1]; 1 µM, irradiation: 8 Gy/4 fr) | NF-kB reporter (A549-Dual [1]; 1 µM, irradiation: none) | NF-kB reporter (A549-Dual [1]; 3 µM, irradiation: 8 Gy/4 fr) | NF-kB reporter (A549-Dual [1]; 3 µM, irradiation: none) | NF-kB reporter (A549-Dual [1]; 10 µM, irradiation: 8 Gy/4 fr) | NF-kB reporter (A549-Dual [1]; 10 µM, irradiation: none) | ISRE reporter (A549-Dual [2]; 0.1 µM, irradiation: 8 Gy/4 fr) | ISRE reporter (A549-Dual [2]; 0.1 µM, irradiation: none) | ISRE reporter (A549-Dual [2]; 0.3 µM, irradiation: 8 Gy/4 fr) | ISRE reporter (A549-Dual [2]; 0.3 µM, irradiation: none) | ISRE reporter (A549-Dual [2]; 1 µM, irradiation: 8 Gy/4 fr) | ISRE reporter (A549-Dual [2]; 1 µM, irradiation: none) | ISRE reporter (A549-Dual [2]; 3 µM, irradiation: 8 Gy/4 fr) | ISRE reporter (A549-Dual [2]; 3 µM, irradiation: none) | ISRE reporter (A549-Dual [2]; 10 µM, irradiation: 8 Gy/4 fr) | ISRE reporter (A549-Dual [2]; 10 µM, irradiation: none)
CC12CCC(CC1=O)C2(C)C (stereo not given) [Camphor] | 0.896 | 0.74 | 0.928 | 0.737 | 0.945 | 0.827 | 1.08 | 0.791 | 0.817 | 0.974 | 0.998 | 0.702 | 0.937 | 0.712 | 0.772 | 0.765 | 0.785 | 0.854 | 0.818 | 0.732
Cc1c(Cl)cccc1Nc1ncccc1C(=O)O [Clonixin] | 1.05 | 1.17 | 0.991 | 0.937 | 1.26 | 0.998 | 1.3 | 0.901 | 1.29 | 1.22 | 1.09 | 0.956 | 1.09 | 0.811 | 0.869 | 0.831 | 0.977 | 0.932 | 0.962 | 0.934
COc1cc2c3cc1Oc1c(OC)c(OC)cc4c1C(Cc1ccc(O)c(c1)Oc1ccc(cc1)CC3N(C)CC2)N(C)CC4 (stereo not given) [Berbamine] | 1.22 | 1.12 | 0.977 | 1.44 | 1.12 | 1.45 | 1.12 | 1.18 | 0.796 | 1.04 | 1.12 | 1.52 | 1.08 | 1.46 | 1.08 | 1.48 | 1.29 | 1.71 | 1.03 | 1.44
CCN(CC)CCNC(=O)c1c(C)[nH]c(/C=C2\C(=O)Nc3ccc(F)cc32)c1C.O=C(O)CC(O)C(=O)O [Sunitinib Malate] | 1.05 | 1 | 1.05 | 1 | 0.912 | 1.08 | 1.09 | 0.812 | 1.27 | 1.19 | 0.987 | 0.69 | 1.1 | 0.727 | 0.799 | 0.774 | 0.9 | 0.729 | 0.832 | 0.898
Cc1nc(NC(=O)N2CCCC2C(N)=O)sc1-c1ccnc(C(C)(C)C(F)(F)F)c1 (stereo not given) [Alpelisib (BYL719)] | 1.16 | 1.2 | 0.896 | 1.33 | 0.842 | 1.6 | 0.854 | 1.22 | 0.665 | 0.808 | 0.988 | 1.24 | 0.862 | 1.04 | 0.863 | 0.991 | 0.522 | 0.616 | 0.482 | 0.521
CC(C)C1CCC(C(=O)NC(Cc2ccccc2)C(=O)O)CC1 (stereo not given) [Nateglinide] | 1.08 | 1.75 | 1.21 | 1.41 | 1.21 | 1.03 | 1.83 | 1.09 | 1.02 | 1.58 | 1.04 | 1.28 | 1.07 | 1.21 | 1.15 | 0.961 | 0.928 | 1.03 | 0.945 | 0.892
Cc1ccc(C(C)C)cc1 [p-Cymene] | 1.19 | 1.33 | 1.08 | 1.16 | 1.3 | 0.892 | 1.59 | 0.958 | 0.843 | 1.74 | 1.11 | 1.17 | 0.959 | 1.07 | 0.964 | 0.879 | 0.831 | 0.918 | 1.06 | 0.888
COC1CC2CCC(C)C(O)(O2)C(=O)C(=O)N2CCCCC2C(=O)OC(C(C)CC2CCC(OCCO)C(OC)C2)CC(=O)C(C)/C=C(\C)C(O)C(OC)C(=O)C(C)CC(C)/C=C/C=C/C=C/1C (stereo not given) [Everolimus (RAD001)] | 0.954 | 1.06 | 1 | 1.14 | 0.872 | 1.09 | 0.999 | 0.987 | 0.993 | 0.998 | 0.775 | 1.15 | 0.789 | 1.32 | 0.642 | 1.27 | 0.692 | 1.18 | 0.619 | 1.26
CCN1CCN(Cc2ccc(Nc3ncc(F)c(-c4cc(F)c5nc(C)n(C(C)C)c5c4)n3)nc2)CC1.CS(=O)(=O)O | 0.91 | 0.996 | 0.83 | 1.05 | 0.842 | 1.08 | 0.695 | 0.952 | 0.814 | 1.15 | 0.935 | 1.22 | 0.769 | 1.22 | 0.747 | 1.48 | 0.526 | 1.18 | 0.698 | 1.42
COc1ccc2cc1Oc1ccc(cc1)CC1c3c(cc4c(c3Oc3cc5c(cc3OC)CCN(C)C5C2)OCO4)CCN1C (stereo not given) [Cepharanthine] | 1.2 | 1.37 | 1.36 | 0.947 | 1.27 | 1.19 | 1.24 | 0.995 | 0.983 | 1.17 | 1.13 | 0.964 | 1.15 | 0.905 | 1.04 | 1.32 | 1.09 | 1.18 | 1.21 | 3.34
CC(C(=O)[O-])c1ccc(CC2CCCC2=O)cc1.[Na+] (stereo not given) [Loxoprofen Sodium] | 1.56 | 0.897 | 1.14 | 1.24 | 1.15 | 1.01 | 1.06 | 0.841 | 1.07 | 1.15 | 1.06 | 1.08 | 1 | 0.904 | 1.21 | 0.769 | 0.754 | 1.11 | 0.8 | 0.803
Nc1nc(Cl)nc2c1ncn2C1OC(CO)C(O)C1F (stereo not given) [Clofarabine] | 0.935 | 0.904 | 1.14 | 1.63 | 1.47 | 2.91 | 2.82 | 3.25 | 2.23 | 2.42 | 0.981 | 0.976 | 0.691 | 2.77 | 0.451 | 3.27 | 0.7 | 3.36 | 0.546 | 2.13
O=C1CCC(C(=O)N2CSCC2C(=O)O)N1 (stereo not given) [Pidotimod] | 1.25 | 3.03 | 1.07 | 2.35 | 2.15 | 1.38 | 2.55 | 1.64 | 1.91 | 1.21 | 1.14 | 2.61 | 1.27 | 1.95 | 1.93 | 1.42 | 1.39 | 1.33 | 1.68 | 1
O=C1CCCC2C3CCC[N+]4([O-])CCCC(CN12)C34 (stereo not given) [Oxymatrine] | 0.607 | 0.682 | 0.747 | 0.776 | 1.08 | 0.725 | 0.665 | 0.876 | 0.768 | 0.722 | 0.7 | 0.682 | 0.75 | 0.571 | 0.731 | 0.703 | 0.527 | 0.913 | 0.779 | 0.653
CNNCc1ccc(C(=O)NC(C)C)cc1.Cl [Procarbazine HCl] | 1.17 | 1.06 | 1.02 | 1.34 | 1.01 | 1.63 | 1.02 | 1.43 | 0.885 | 1.01 | 1.12 | 1.31 | 0.973 | 1.12 | 0.948 | 1.39 | 1.02 | 1.08 | 0.984 | 0.923
Nc1nnc(-c2cccc(Cl)c2Cl)c(N)n1 [Lamotrigine] | 0.978 | 0.927 | 0.917 | 0.922 | 0.904 | 0.947 | 0.832 | 1.11 | 1.13 | 1.03 | 1.05 | 1.01 | 1.01 | 0.962 | 0.98 | 0.969 | 1.04 | 0.968 | 1.12 | 0.988
CNC(=O)c1cc(Oc2ccc(NC(=O)Nc3ccc(Cl)c(C(F)(F)F)c3)cc2)ccn1.Cc1ccc(S(=O)(=O)O)cc1 [Sorafenib Tosylate] | 1.06 | 0.982 | 1.06 | 1.05 | 0.794 | 0.986 | 0.61 | 0.862 | 0.821 | 1.02 | 0.905 | 0.857 | 1.06 | 1.01 | 0.703 | 0.825 | 0.181 | 0.641 | 0.311 | 0.237
COc1c(C)c2c(c(O)c1C/C=C(\C)CCC(=O)O)C(=O)OC2 [Mycophenolic acid] | 1.2 | 1.86 | 0.807 | 2.3 | 1.18 | 1.41 | 1.77 | 1.55 | 1.22 | 1.55 | 1.16 | 1.81 | 0.982 | 0.972 | 0.176 | 0.608 | 0.663 | 0.304 | 0.0895 | 0.326
CC(C)=CCC/C(C)=C/CC/C(C)=C/CCC(=O)OC/C=C(\C)CCC=C(C)C [Gefarnate] | 1.1 | 1.37 | 1.09 | 1.22 | 1.24 | 0.917 | 1.24 | 1.04 | 0.835 | 1.11 | 0.95 | 1.27 | 0.89 | 0.924 | 0.949 | 0.926 | 0.852 | 0.904 | 0.93 | 0.846
COc1cc2ncnc(Nc3ccc(F)c(Cl)c3)c2cc1NC(=O)/C=C/CN1CCCCC1 | 1.05 | 1.04 | 0.978 | 1.1 | 0.996 | 1.29 | 1.21 | 1.09 | 0.982 | 0.985 | 0.953 | 0.86 | 0.999 | 0.874 | 1.05 | 0.807 | 0.967 | 0.889 | 1.03 | 1.04
Nc1ccn(C2OC(CO)C(O)C2(F)F)c(=O)n1 (stereo not given) [Gemcitabine] | 1.37 | 2.75 | 1.35 | 2.83 | 1.23 | 2.64 | 1.34 | 2.83 | 1.27 | 2.13 | 0.542 | 2.89 | 0.481 | 2.6 | 0.427 | 2.49 | 0.337 | 2.17 | 0.399 | 1.6
CC1(C)OC2CC3C4CCC5=CC(=O)C=CC5(C)C4C(O)CC3(C)C2(C(=O)CO)O1 (stereo not given) [Desonide] | 0.658 | 1.14 | 0.826 | 1.13 | 1.02 | 0.905 | 1.25 | 0.76 | 0.939 | 0.74 | 0.0649 | 0.254 | 0.0583 | 0.273 | 0.0495 | 0.264 | 0.0469 | 0.268 | 0.0659 | 0.246
CC1CC2C(C(O)CC3(C)C2CCC3(O)C(=O)COC(=O)CCC(=O)O)C2(C)C=CC(=O)C=C12 (stereo not given) [Methylprednisolone hemisuccinate] | 0.842 | 1.15 | 1.22 | 1 | 1.35 | 0.771 | 0.691 | 0.766 | 0.563 | 0.796 | 0.157 | 0.802 | 0.281 | 0.276 | 0.0917 | 0.268 | 0.0816 | 0.171 | 0.0588 | 0.196
Cc1oncc1C(=O)Nc1ccc(C(F)(F)F)cc1 [Leflunomide] | 0.967 | 1.03 | 0.931 | 1.19 | 1.44 | 0.933 | 1.3 | 1.02 | 0.88 | 0.916 | 0.833 | 0.791 | 0.822 | 0.817 | 0.766 | 0.713 | 0.75 | 0.796 | 0.551 | 0.514
